# Laboratory results published in the supplement of paper PMC8728848.
# The other results are listed elsewhere or left out.
# B1: MUC1-SEA-mFcIgG2a (Homo sapiens), P15941 (SEA domain only) (protein)
# chain: DAAQPARRAVRSSSELTSEQKLISEEDLSRLVHNGTSARATTTPASKSTPFSIPSHHSDTPTTLASHSTKTDASSTHHSTVPPLTSSNHSTSPQLSTGVSFFFLSFHISNLQFNSSLEDPSTDYYQELQRDISEMFLQIYKQGGFLGLSNIKFRPGSVVVQLTLAFREGTINVHDVETQFNQYKTEAASRYNLTISDASVSDVPFPFSAQSGSDDDDKALEPRGPTIKPCPPCKCPAPNLLGGPSVFIFPPKIKDVLMISLSPIVTCVVVDVSEDDPDVQISWFVNNVEVHTAQTQTHREDYNSTLRVVSALPIQHQDWMSGKEFKCKVNNKDLPAPIERTISKPKGSVRAPQVYVLPPPEEEMTKKQVTLTCMVTDFMPEDIYVEWTNNGKTELNYKNTEPVLDSDGSYFMYSKLRVEKKNWVERNSYSCSVVHEGLHNHHTTKSFSRTPGKHHHHH
# Assays:
# Experiment in all cases: glycan array binding signal (z-score within array); higher = stronger binding
# Settings in all cases: glycan notation: IUPAC condensed, linker removed
# [1] = biological target: Neu5Ac(a2-3)Gal6S(b1-4)[Fuc(a1-3)]GlcNAc
# Summary of the method: (§1)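 Glycan array data were curated from 3228 arrays in the Consortium for Functional Glycomics database and kept only where the protein sequence was available. Glycan names were converted to IUPAC-condensed notation, and columns mapping to the same glycan were averaged. The binding signal is a within-array Z-score, averaged across arrays of the same protein sequence at different concentrations or buffers and across linkers. Negative Z-scores can be read as non-binding.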
# Neu5Ac(a2-3)GalNAc = biological target: Neu5Ac(a2-3)GalNAc
# Summary of the method: as §1
# [2] = biological target: Neu5Ac(a2-3)GalNAc(b1-4)GlcNAc
# Summary of the method: as §1
# [3] = biological target: Neu5Ac(a2-3)[GalNAc(b1-4)]Gal(b1-4)Glc
# Summary of the method: as §1
# [4] = biological target: Neu5Ac(a2-3)[GalNAc(b1-4)]Gal(b1-4)GlcNAc
# Summary of the method: as §1
# [5] = biological target: Neu5Ac(a2-3)[Neu5Ac(a2-6)]GalNAc
# Summary of the method: as §1
# Neu5Ac(a2-6)Gal = biological target: Neu5Ac(a2-6)Gal
# Summary of the method: as §1
# Neu5Ac(a2-6)Gal(b1-4)Glc = biological target: Neu5Ac(a2-6)Gal(b1-4)Glc
# Summary of the method: as §1
# [6] = biological target: Neu5Ac(a2-6)Gal(b1-4)GlcNAc
# Summary of the method: as §1
# [7] = biological target: Neu5Ac(a2-6)Gal(b1-4)GlcNAc(b1-2)Man(a1-3)[Gal(b1-4)GlcNAc(b1-2)Man(a1-6)]Man(b1-4)GlcNAc(b1-4)GlcNAc
# Summary of the method: as §1
# [8] = biological target: Neu5Ac(a2-6)Gal(b1-4)GlcNAc(b1-2)Man(a1-3)[GlcNAc(b1-2)Man(a1-6)]Man(b1-4)GlcNAc(b1-4)GlcNAc
# Summary of the method: as §1
# [9] = biological target: Neu5Ac(a2-6)Gal(b1-4)GlcNAc(b1-2)Man(a1-3)[GlcNAc(b1-2)Man(b1-4)GlcNAc(b1-2)Man(a1-6)]Man(b1-4)GlcNAc(b1-4)GlcNAc
# Summary of the method: as §1
# [10] = biological target: Neu5Ac(a2-6)Gal(b1-4)GlcNAc(b1-2)Man(a1-3)[Neu5Ac(a2-6)Gal(b1-4)GlcNAc(b1-2)Man(a1-6)]Man(b1-4)GlcNAc(b1-4)GlcNAc
# Summary of the method: as §1
# [11] = biological target: Neu5Ac(a2-6)Gal(b1-4)GlcNAc(b1-2)Man(a1-6)[Gal(b1-4)GlcNAc(b1-2)Man(a1-3)]Man(b1-4)GlcNAc(b1-4)GlcNAc
# Summary of the method: as §1
# [12] = biological target: Neu5Ac(a2-6)Gal(b1-4)GlcNAc(b1-2)Man(a1-6)[GlcNAc(b1-2)Man(a1-3)]Man(b1-4)GlcNAc(b1-4)GlcNAc
# Summary of the method: as §1
# [13] = biological target: Neu5Ac(a2-6)Gal(b1-4)GlcNAc(b1-3)Gal(b1-4)GlcNAc
# Summary of the method: as §1
# [14] = biological target: Neu5Ac(a2-6)Gal(b1-4)GlcNAc(b1-3)Gal(b1-4)[Fuc(a1-3)]GlcNAc(b1-3)Gal(b1-4)[Fuc(a1-3)]GlcNAc
# Summary of the method: as §1
# [15] = biological target: Neu5Ac(a2-6)Gal(b1-4)GlcNAc6S
# Summary of the method: as §1
# Neu5Ac(a2-6)GalNAc = biological target: Neu5Ac(a2-6)GalNAc
# Summary of the method: as §1
# [16] = biological target: Neu5Ac(a2-6)GalNAc(b1-4)GlcNAc
# Summary of the method: as §1
# Neu5Ac(a2-8)Neu5Ac = biological target: Neu5Ac(a2-8)Neu5Ac
# Summary of the method: as §1
# [17] = biological target: Neu5Ac(a2-8)Neu5Ac(a2-3)Gal(b1-4)Glc
# Summary of the method: as §1
# [18] = biological target: Neu5Ac(a2-8)Neu5Ac(a2-3)[GalNAc(b1-4)]Gal(b1-4)Glc
# Summary of the method: as §1
# [19] = biological target: Neu5Ac(a2-8)Neu5Ac(a2-8)Neu5Ac
# Summary of the method: as §1
# [20] = biological target: Neu5Ac(a2-8)Neu5Ac(a2-8)Neu5Ac(a2-3)Gal(b1-4)Glc
# Summary of the method: as §1
# [21] = biological target: Neu5Ac(a2-8)Neu5Ac(a2-8)Neu5Ac(a2-3)[GalNAc(b1-4)]Gal(b1-4)Glc
# Summary of the method: as §1
# [22] = biological target: Neu5Ac(a2-8)Neu5Ac(a2-8)Neu5Ac(a2-8)Neu5Ac(a2-3)[GalNAc(b1-4)]Gal(b1-4)Glc
# Summary of the method: as §1
# [23] = biological target: Neu5Ac(b2-6)Gal(b1-4)GlcNAc
# Summary of the method: as §1
# Neu5Ac(b2-6)GalNAc = biological target: Neu5Ac(b2-6)GalNAc
# Summary of the method: as §1
# [24] = biological target: Neu5Ac9Ac(a2-6)Gal(b1-4)GlcNAc
# Summary of the method: as §1
# [25] = biological target: Neu5Gc(a2-3)Gal(b1-3)GlcNAc
# Summary of the method: as §1
# [26] = biological target: Neu5Gc(a2-3)Gal(b1-3)[Fuc(a1-4)]GlcNAc
# Summary of the method: as §1
# Neu5Gc(a2-3)Gal(b1-4)Glc = biological target: Neu5Gc(a2-3)Gal(b1-4)Glc
# Summary of the method: as §1
# [27] = biological target: Neu5Gc(a2-3)Gal(b1-4)GlcNAc
# Summary of the method: as §1
# [28] = biological target: Neu5Gc(a2-3)Gal(b1-4)[Fuc(a1-3)]GlcNAc
# Summary of the method: as §1
# [29] = biological target: Neu5Gc(a2-6)Gal(b1-4)GlcNAc
# Summary of the method: as §1
# Neu5Gc(a2-6)GalNAc = biological target: Neu5Gc(a2-6)GalNAc
# Summary of the method: as §1
# [30] = biological target: Neu5Gc(b2-6)Gal(b1-4)GlcNAc
# Summary of the method: as §1
binder,measurement,setting,value
B1,glycan array binding signal (z-score),[1],-0.348
same,glycan array binding signal (z-score),Neu5Ac(a2-3)GalNAc,-0.07
same,glycan array binding signal (z-score),[2],-0.601
same,glycan array binding signal (z-score),[3],-0.29
same,glycan array binding signal (z-score),[4],-0.408
same,glycan array binding signal (z-score),[5],-0.035
same,glycan array binding signal (z-score),Neu5Ac(a2-6)Gal,-0.344
same,glycan array binding signal (z-score),Neu5Ac(a2-6)Gal(b1-4)Glc,-0.261
same,glycan array binding signal (z-score),[6],-0.427
same,glycan array binding signal (z-score),[7],-0.245
same,glycan array binding signal (z-score),[8],-0.1
same,glycan array binding signal (z-score),[9],0.253
same,glycan array binding signal (z-score),[10],0.034
same,glycan array binding signal (z-score),[11],-0.32
same,glycan array binding signal (z-score),[12],0.985
same,glycan array binding signal (z-score),[13],-0.465
same,glycan array binding signal (z-score),[14],-0.422
same,glycan array binding signal (z-score),[15],-0.129
same,glycan array binding signal (z-score),Neu5Ac(a2-6)GalNAc,-0.397
same,glycan array binding signal (z-score),[16],-0.459
same,glycan array binding signal (z-score),Neu5Ac(a2-8)Neu5Ac,0.669
same,glycan array binding signal (z-score),[17],-0.51
same,glycan array binding signal (z-score),[18],-0.453
same,glycan array binding signal (z-score),[19],-0.352
same,glycan array binding signal (z-score),[20],-0.328
same,glycan array binding signal (z-score),[21],-0.423
same,glycan array binding signal (z-score),[22],-0.126
same,glycan array binding signal (z-score),[23],-0.324
same,glycan array binding signal (z-score),Neu5Ac(b2-6)GalNAc,-0.159
same,glycan array binding signal (z-score),[24],-0.191
same,glycan array binding signal (z-score),[25],-0.484
same,glycan array binding signal (z-score),[26],-0.12
same,glycan array binding signal (z-score),Neu5Gc(a2-3)Gal(b1-4)Glc,-0.094
same,glycan array binding signal (z-score),[27],-0.41
same,glycan array binding signal (z-score),[28],-0.561
same,glycan array binding signal (z-score),[29],0.128
same,glycan array binding signal (z-score),Neu5Gc(a2-6)GalNAc,-0.307
same,glycan array binding signal (z-score),[30],0.23
